Measured values taken from the supplement of paper PMC12355420.
Counter-ions that a name gives are not always drawn. This is one part of the list. No stated cut-off is given here; in the data, active = 0.5 or less and inactive = the rest. Single values are uncertain, as repeats are few or missing.

Tests used:
Conditions in all cases: 50 µM; 24 h
[1] = system: HeLa VPS33A reporter cells; assay: relative cell viability (CellMask signal) vs DMSO (fraction of DMSO); higher = less cytotoxic;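 further: primary screen of an FDA-approved drug library in HeLa reporter cells in 96-well format, CellMask signal normalized to DMSO-treated wells set as 1, under 0.5 deemed highly cytotoxic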
[2] = system: HeLa VPS33A R498W KI + HA-SDC1-FLAG; assay: relative GAG core protein HA-SDC1 amount per cell number vs DMSO (fraction of DMSO); higher = more SDC1 (GAG core protein);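 further: HA-SDC1 level read out by In-Cell Western staining with an anti-HA antibody against the N-terminal tag, screening FDA-approved library drugs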
[3] = system: HeLa VPS33A KO + NLuc-VPS33A R498W; assay: relative mutant VPS33A R498W amount (NanoLuc luminescence) vs DMSO (fraction of DMSO); HeLa model of a glycosaminoglycan (GAG) storage disease; KI is knock-in and KO knock-out; SDC1 is syndecan 1; higher = higher mutant VPS33A level;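 further: screen of an FDA-approved drug library, NanoLuc luminescence read after lysing the treated cells, taken as a measure of mutant VPS33A protein stability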

| Compound | relative cell viability [1] | relative GAG core protein HA-SDC1 amount per cell number [2] | relative mutant VPS33A R498W amount [3] |
| --- | --- | --- | --- |
| CC(C)OC(=O)OCOP(=O)(CO[C@H](C)Cn1cnc2c(N)ncnc21)OCOC(=O)OC(C)C [Tenofovir Disoproxil Fumarate] | 1.04 | inactive: 1.31 | 1.56 |
| O=C(O)CCNC(=O)c1ccccc1 [Betamipron] | 1.11 | inactive: 1.23 | 1.24 |
| COC(=O)c1ccc2c(C(=Nc3ccc(N(C)C(=O)CN4CCN(C)CC4)cc3)c3ccccc3)c(O)[nH]c2c1 [Nintedanib (BIBF 1120)] | 1.44 | inactive: 1.66 | 0.791 |
